# Assay results published in PubChem BioAssay AID485294 (National Center for Advancing Translational Sciences (NCATS), 2010).
# Hit rate of the full screen: of about 370,000 compounds, about 150 (0.041%) were called active. Inconclusive results, whose numbers are uncertain, are shown with a selection of clear calls. Calls follow the shape of the dose curve; as a rule, active = well fitted inhibition curve with a large enough effect; inconclusive = small, poorly fitted or top-dose-only effect; inactive = flat fitted curve, though single readings scatter. Potencies of inconclusive entries are left out as doubtful fits.
# Biological target: Beta-lactamase (Escherichia coli (strain K12)) (UniProt P00811)
# Sequence of UniProt P00811 (P00811 whole entry, looked up): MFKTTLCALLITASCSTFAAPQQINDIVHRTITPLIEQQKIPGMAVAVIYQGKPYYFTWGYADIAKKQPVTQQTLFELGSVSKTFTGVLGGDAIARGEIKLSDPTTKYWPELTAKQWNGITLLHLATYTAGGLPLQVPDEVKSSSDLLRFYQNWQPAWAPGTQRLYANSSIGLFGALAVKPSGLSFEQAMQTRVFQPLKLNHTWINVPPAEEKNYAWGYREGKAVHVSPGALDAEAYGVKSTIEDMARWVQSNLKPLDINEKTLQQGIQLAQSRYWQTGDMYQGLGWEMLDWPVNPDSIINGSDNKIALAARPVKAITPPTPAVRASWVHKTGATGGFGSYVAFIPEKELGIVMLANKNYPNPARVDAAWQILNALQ
# Assay: qHTS Inhibitors of AmpC Beta-Lactamase (assay with detergent); also: nearly all actives have a fitted effect of over 25% in size
# Details: AmpC hydrolysis of nitrocefin, absorbance 480 nm, 0.01% Triton; series mostly up to 114 µM
# Summary of the method: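 AmpC (5.3 nM in the dispensed reagent) in 20 mM phosphate pH 7.0 with 0.01% (detergent screen) or 0.0001% Triton X-100 was preincubated with compounds for 15 min at room temperature. Nitrocefin was then added from an 800 uM solution, and hydrolysis was followed at 480 nm.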
# Potency is read from the fitted curve at half-maximal effect; tags tell the direction and shape of the fitted curve.
row,Structure (SMILES),Potency
1,CC(C)CCNC(=O)CN1C(=O)c2cccnc2Sc2ccccc21,inactive
2,Cc1cccc(NC(=O)CSc2nc(N)c(NC(=O)c3cccs3)c(=O)[nH]2)c1,inactive
3,Cc1occc1-c1nnc(SCC(=O)NCCc2ccccc2)n1C(C)c1ccccc1 (stereo unspecified),"inconclusive [inhibitor, full curve, poor fit]"
4,COc1ccc2nc3oc(C(=O)N4CCN(c5cccc(C(F)(F)F)c5)CC4)cc3cc2c1,"inconclusive [inhibitor, partial curve, poor fit]"
5,O=S(=O)(c1cccc(S(=O)(=O)N2CCC(n3nnc4ccccc43)CC2)c1)N1CCCCC1,"inconclusive [inhibitor, partial curve]"
6,CC(Oc1ccccc1)c1ccn[nH]1 (stereo unspecified),inactive
7,CC1CC(C)CN(C(=O)C(C)N(C)CC(=O)Nc2ccc(F)cc2)C1 (stereo unspecified),inactive
8,CCCOC(=O)CSc1nnc(-c2cc(OC)c(OC)c(OC)c2)o1,"inconclusive [inhibitor, single point]"
9,Cc1cc(C)c2c(CC(=O)N(CCC#N)Cc3cccnc3)coc2c1,"inconclusive [inhibitor, partial curve, poor fit]"
10,Fc1ccc(OCCCn2ccnc2)cc1,"inconclusive [inhibitor, full curve, poor fit]"
11,CC(=O)Nc1ccc2c(c1)CCCN2C(=O)c1ccccc1,"inconclusive [inhibitor, partial curve, poor fit]"
12,CCOc1ccc(NC(=O)N(C)CCc2c(C)nn(C)c2C)cc1,inactive
13,NC(=O)C1CCN(C(=O)c2cccc3ccccc23)CC1,"inconclusive [inhibitor, full curve, poor fit]"
14,CCCCn1c(N)c(N(CCOC)C(=O)c2ccc(F)c(S(=O)(=O)N3CCOCC3)c2)c(=O)[nH]c1=O,"inconclusive [inhibitor, full curve, poor fit]"
15,CCC(C(=O)N1CCOCC1)n1c2ccccc2c2nc(=O)cc(C)n21 (stereo unspecified),"inconclusive [inhibitor, full curve, poor fit]"
16,COc1ccc(N(CC(=O)NCc2ccc3c(c2)OCO3)C(=O)CCC(=O)Nc2ccccn2)cc1,inactive
17,COc1ccc(Cc2nnc(NN)[nH]c2=O)cc1OC,"inconclusive [inhibitor, full curve, poor fit]"
18,Cc1csc(NC(=O)CSc2nnc(CCNC(=O)c3cccs3)n2C)n1,"inconclusive [inhibitor, single point]"
19,Cc1ccc(S(=O)(=O)c2c(N)n(CC3CCOC3)c3nc4ccccc4nc23)cc1 (stereo unspecified),"inconclusive [inhibitor, full curve, poor fit]"
20,Cc1c(C)n2c(SCC(=O)Nc3cccc4ccccc34)nnc2[nH]c1=O,"inconclusive [inhibitor, partial curve, poor fit]"
21,O=C(/C=C/c1ccc(Cl)cc1Cl)NC(=S)Nc1ccc(CN2CCOCC2)cc1,"inconclusive [inhibitor, full curve, poor fit]"

row,Structure (SMILES),Potency
1,CCCc1c(OCCCOc2ccc(OCC(=O)O)cc2)ccc(C(C)=O)c1O,"inconclusive [inhibitor, partial curve, poor fit]"
2,CN(CCCNC(=O)CCc1cn(C)c2ccccc12)C1CCCCC1,inactive
3,Cc1ccc2nc(N(CCCN(C)C)C(=O)CS(=O)(=O)c3ccccc3)sc2c1,"inconclusive [inhibitor, full curve]"
4,CCc1ccc(NS(=O)(=O)c2cc(OC)ccc2OC)cc1,"inconclusive [inhibitor, full curve]"
5,CC(C)CN(C(=O)CN1CCN(c2ccc(O)cc2)CC1)c1c(N)n(CC(C)C)c(=O)[nH]c1=O,"inconclusive [inhibitor, single point]"
6,CCOCCCNC(=O)c1ccc2c(=O)n(CCc3ccc(OC)c(OC)c3)c(=O)[nH]c2c1,inactive
7,COc1ccc(CNCCC(c2ccc(OC(C)C)cc2)C(C)C)cc1OC (stereo unspecified),"inconclusive [inhibitor, single point]"
8,O=C(O)C1C(c2ccccc2)C(C(=O)Oc2ccc(O)cc2)C1c1ccccc1 (stereo unspecified),"inconclusive [inhibitor, full curve, poor fit]"
9,c1ccc(N2CCN(c3nc4cc5c(cc4s3)OCCO5)CC2)cc1,inactive
10,CC1CN(c2oc(-c3ccco3)nc2S(=O)(=O)c2ccccc2)CC(C)O1 (stereo unspecified),"inconclusive [inhibitor, partial curve]"
11,CCc1ccc(Nc2n[n+](-c3ccccc3)c(-c3ccc(OC)c(Br)c3)s2)cc1,inactive
12,CC(C)=N/N=C1\NC(=O)C(C)S1 (stereo unspecified),"inconclusive [inhibitor, single point]"
13,Cc1c(Br)cc(-c2nnco2)cc1Br,"inconclusive [inhibitor, partial curve, poor fit]"
14,COC(=O)c1sc(S(=O)(=O)Nc2ccc(C)c(C)c2)c(C(=O)OC)c1C,"inconclusive [inhibitor, full curve]"
15,CCCNC(=O)N1[C@H]2CC[C@@H]1C(C(=O)OC)=C(c1cccc(C#N)c1)C2,"inconclusive [inhibitor, single point]"
16,Cc1ccccc1Cn1c2ccccc2c2cnn(CC(=O)N3CCN(c4ccccc4)CC3)c(=O)c21,"inconclusive [inhibitor, partial curve, poor fit]"
17,Cc1oc(-c2ccccc2Cl)nc1CS(=O)(=O)CC(=O)NC(C)c1ccccc1 (stereo unspecified),"inconclusive [inhibitor, partial curve]"
18,Cc1ccc(OCC(=O)c2cc(C)n(C)c2C)c([N+](=O)[O-])n1,"inconclusive [inhibitor, full curve, poor fit]"
19,COc1ccc(S(N)(=O)=O)cc1C(=O)NCC(C)(C)N1CCOCC1,"inconclusive [inhibitor, full curve, poor fit]"
20,CCOC(=O)C1CCN(C(=O)CN(C)S(=O)(=O)c2ccc3c(c2)c(=O)n(C)c(=O)n3C)CC1,"inconclusive [inhibitor, single point]"
